Test results as given in PubChem BioAssay AID2100 (National Center for Advancing Translational Sciences (NCATS), 2009).
About 1,200 (0.4%) of roughly 300,000 compounds were called active. Inconclusive results, whose numbers are uncertain, are shown with a selection of clear calls. The call rests on the fitted dose curve; in most records, active means well fitted inhibition curve with a large enough effect; inconclusive means small, poorly fitted or top-dose-only effect, or another doubt; inactive means no such curve, though single readings can be large or run the other way. Potencies beside an inconclusive call are fits to weak or partial responses and may not hold up.

target: Lysosomal alpha-glucosidase (Homo sapiens) (UniProt P10253); assay: qHTS Assay for Inhibitors and Activators of Human alpha-Glucosidase Cleavage of Glycogen; conditions: recombinant GAA, glycogen substrate, Amplex Red glucose oxidase fluorescence; activity change, negative = inhibition: at 76.4 µM (top of the series) unless noted;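 on activity change, negative = inhibition: 0% = full enzyme reaction and -100% = no-enzyme basal signal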
Method in brief: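 Recombinant enzyme (4 nM final) with compounds titrated up to 77 uM and bovine liver glycogen (30 ug) in citrate pH 5.0, 0.01% Tween-20, 37 C 40 min. Released glucose detected by Amplex Red/glucose oxidase (Ex 573/Em 610); AC50 from Hill fits.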
Potency means the concentration at half of the fitted maximal effect.

Q: With `O=C(CSc1nc2ccccc2s1)NNC(=S)Nc1ccc(Br)cc1` as the molecule, how does the Potency read?
A: The Potency was inconclusive: 31.6 µM [inhibitor, single point].

Q: Which Potency does the source give for `CCOc1cc(C2C3=C(CCCC3=O)N(C)C3=C2C(=O)CCC3)cc(Cl)c1O` here?
A: Its Potency is inconclusive: 50.1 µM [inhibitor, single point].

Q: For `COc1ccc(N=Cc2c(O)ccc3ccccc23)cc1`, which Potency is on record?
A: Its Potency is inconclusive: 39.8 µM [inhibitor, partial curve].

Q: Which Potency does the source give for `COC(=O)C1=C2SC(C)C(=O)N2C(N)=C(C#N)C1c1cc(OC)c(OC)c(OC)c1` (configuration not stated) here?
A: Its Potency is inconclusive: 19.8 µM [inhibitor, partial curve].

Q: `O=C(c1cc2sccc2n1Cc1ccccc1)N1CCCc2ccccc21` was tested. Which Potency did it give?
A: Its Potency is inconclusive: 1.76 µM [inhibitor, partial curve].

Q: With `Cc1ccc(O)c(N=Cc2sc3ccccc3c2Cl)c1` as the molecule, how does the Potency read?
A: The Potency was inconclusive: 10 µM [inhibitor, single point].

Q: For `COC(=O)c1ccc(-c2nc(O)c(C)s2)cc1`, which Potency is on record?
A: Its Potency is inconclusive: 35.5 µM [inhibitor, single point].

Q: For `CC(=O)c1ccc2noc(-c3cccc(C)c3)c2c1`, which Potency is on record?
A: Its Potency is inconclusive: 50.1 µM [inhibitor, single point].

Q: For `Oc1ccc(N=C/C=C/c2ccc(Br)cc2)cc1-c1nc2ccccc2s1`, which Potency is on record?
A: The Potency was inconclusive: 31.6 µM [activator, partial curve].

Q: For `O=C(Cc1nnc(NC(=O)c2ccccc2)s1)N/N=C\c1ccc(O)c(O)c1`, which Potency is on record?
A: Its Potency is inconclusive: 5.62 µM [inhibitor, partial curve].

Q: How did the Potency turn out when `C/C(=N\Nc1ccc(S(=O)(=O)N2CCOCC2)cc1[N+](=O)[O-])C(C)C` was run?
A: The Potency was inconclusive: 25.1 µM [inhibitor, single point].

Q: Which “activity change, negative = inhibition” value does the source give for `O=C1CCCC2=C1C(c1ccco1)Nc1ccc3ccccc3c12` (configuration not stated) here?
A: The value was inactive: -9%.

Q: `CC1CCC/C(=C\Nc2ccc(O)cc2)C1=O` (configuration not stated) was tested. Which Potency did it give?
A: Its Potency is active: 14.1 µM.

Q: For `COc1cccc(C2C3=C(CC(C)(C)CC3=O)Nc3cc(OC)c(OC)cc32)c1` (configuration not stated), which Potency is on record?
A: Its Potency is inconclusive: 28 µM [inhibitor, partial curve].

Q: How did the Potency turn out when `CCC(C)NC(=O)CSc1ncnc2sccc12` (configuration not stated) was run?
A: The Potency was inconclusive: 5.62 µM [inhibitor, partial curve].

Q: How did the Potency turn out when `CCCCOc1ccc(/C(N)=N/O)cc1` was run?
A: The Potency was inconclusive: 15.7 µM [inhibitor, partial curve].

Q: `COc1ccc(CNC(=S)N/N=C/c2ccc(OC)c(OC)c2)cc1` was tested. Which Potency did it give?
A: The Potency was inconclusive: 12.5 µM [inhibitor, partial curve].

Q: `CCNc1ccc(S(=O)(=O)N(C)C)cc1NCC(=O)Nc1ccc(Br)cc1F` was tested. Which Potency did it give?
A: The Potency was inconclusive: 11.1 µM [inhibitor, partial curve].

Q: Which “activity change, negative = inhibition” value does the source give for `C/C=C(/C(=C/C)c1ccc(O)cc1)c1ccc(O)cc1` here?
A: The value was inactive: -14.2%.

Q: Which “activity change, negative = inhibition” value does the source give for `CSC[C@H](NC(=O)COc1cc2c(c3oc(=O)c(C)c(C)c13)CCC(C)(C)O2)C(=O)O` here?
A: The value was inactive: 0.84%.

Q: How did the Potency turn out when `CCCCc1ccc(-n2c(Cc3cccs3)n[nH]c2=S)cc1` was run?
A: Its Potency is inconclusive: 39.8 µM [inhibitor, single point].

Q: For `Cn1nc(C(=O)N2CCN(c3ccc([N+](=O)[O-])cc3)CC2)c2c1-c1ccccc1S(=O)(=O)C2`, which “activity change, negative = inhibition” value is on record?
A: Its value is inactive: -4.48% [at 76.3 µM].

Q: With `Cc1ccc(C(C#N)c2ccc(Cl)nn2)cc1` (configuration not stated) as the molecule, how does the Potency read?
A: The Potency was inconclusive: 31.6 µM [inhibitor, single point].

Q: With `CNc1n[nH]c(=S)s1` as the molecule, how does the Potency read?
A: The Potency was inconclusive: 25.1 µM [inhibitor, single point].

Q: With `Cc1cc(-c2c(C)[nH]n(-c3ccccc3)c2=O)n[nH]1` as the molecule, how does the Potency read?
A: Its Potency is inconclusive: 31.6 µM [inhibitor, single point].

Q: `Cc1cc(O)c(C(C)C)cc1NS(=O)(=O)c1ccccc1` was tested. Which Potency did it give?
A: Its Potency is active: 9.92 µM.

Q: How did the “activity change, negative = inhibition” value turn out when `CC(C)c1ccc(S(=O)(=O)/N=C2\C=C(NS(=O)(=O)c3ccccc3)C(=O)c3ccccc32)cc1` was run?
A: The value was inactive: 0.997%.

Q: With `CC(C(=O)N1c2ccccc2Sc2ccccc21)n1nnc(-c2cccs2)n1` (configuration not stated) as the molecule, how does the Potency read?
A: Its Potency is inconclusive: 7.03 µM [inhibitor, full curve, poor fit].

Q: How did the “activity change, negative = inhibition” value turn out when `COc1ccc(-c2c(C#N)c(SCC(=O)Nc3cccc(Cl)c3)nc(C)c2C(=O)Nc2ccccc2)cc1OC` was run?
A: The value was inactive: -1.01% [at 76.3 µM].

Q: For `COc1ccc(Nc2oc(-c3ccc(COc4cccc(C)c4)o3)nc2C#N)cc1`, which Potency is on record?
A: Its Potency is inconclusive: 6.31 µM [inhibitor, full curve].

Q: Which Potency does the source give for `CN(C(=S)Nc1ccc(SC(F)F)cc1)c1ccc(O)cc1` here?
A: Its Potency is inconclusive: 28.2 µM [inhibitor, partial curve].

Q: How did the Potency turn out when `CNC(=S)NNC(=O)c1ccc(=O)n(Cc2ccc(Cl)cc2Cl)c1` was run?
A: The Potency was inconclusive: 17.8 µM [inhibitor, partial curve].

Q: Which Potency does the source give for `COC(=O)COc1ccc(C2C(C(=O)OC)=C(C)NC3=C2C(=O)c2ccccc23)cc1OC` (configuration not stated) here?
A: The Potency was inconclusive: 22.4 µM [inhibitor, partial curve].

Q: With `COc1cc(C2C(C#N)=C(N)Oc3n[nH]c(-c4cccnc4)c32)cc(Br)c1O` (configuration not stated) as the molecule, how does the Potency read?
A: Its Potency is inconclusive: 9.92 µM [inhibitor, partial curve].

Q: How did the Potency turn out when `O=C(Nc1ccc(O)cc1)c1ccccc1OCc1ccccc1` was run?
A: The Potency was inconclusive: 28.2 µM [inhibitor, single point].

Q: For `O=C(Oc1cccc2c(OC(=O)N3CCCC3)cccc12)N1CCCC1`, which Potency is on record?
A: The Potency was inconclusive: 4.47 µM [inhibitor, full curve].

Q: With `Nc1cccc2[nH]c(C(F)(F)F)nc12` as the molecule, how does the Potency read?
A: The Potency was inconclusive: 31.6 µM [inhibitor, partial curve, poor fit].

Q: How did the Potency turn out when `CCC(NC(C)C)C(O)c1ccc(O)c2[nH]c(=O)ccc12` (configuration not stated) was run?
A: The Potency was inconclusive: 6.31 µM [inhibitor, partial curve].

Q: For `COc1ccc(-c2nc(C#N)c(NCc3ccco3)o2)cc1`, which Potency is on record?
A: Its Potency is inconclusive: 28.2 µM [inhibitor, partial curve].

Q: With `CC(C)C1Nc2c(O)cc(Cl)c([N+](=O)[O-])c2C2C=CCC21` (configuration not stated) as the molecule, how does the Potency read?
A: The Potency was active: 14 µM.

Q: For `O=C1OC(c2ccccc2)=C/C1=C/N1CCCCC1`, which Potency is on record?
A: Its Potency is inconclusive: 44.3 µM [inhibitor, partial curve, poor fit].

Q: Which Potency does the source give for `COc1ccc(/C=C/C(=O)N2CCNC(=O)C2)c(OC)c1` here?
A: The Potency was inconclusive: 31.6 µM [inhibitor, single point].

Q: With `S=C(Nc1ccc2cn[nH]c2c1)Nc1ccc(Cl)cc1Cl` as the molecule, how does the Potency read?
A: The Potency was inconclusive: 35.5 µM [inhibitor, partial curve].

Q: Which Potency does the source give for `Cn1c(N/N=C/c2ccccc2)nc2sc3c(c2c1=O)CCC3` here?
A: Its Potency is inconclusive: 15.7 µM [inhibitor, partial curve].

Q: How did the Potency turn out when `COc1cc(/C=N/n2c(-c3n[nH]c4c3CCC4)n[nH]c2=S)cc(OC)c1O` was run?
A: Its Potency is inconclusive: 25.1 µM [inhibitor, partial curve].

Q: With `CNC(=S)NNC(=O)c1ccc2c(c1)OCO2` as the molecule, how does the Potency read?
A: Its Potency is inconclusive: 17.8 µM [inhibitor, partial curve].

Q: Which Potency does the source give for `COc1cc(/C=C2/NC(=O)N(c3cccc(Cl)c3)C2=O)ccc1O` here?
A: The Potency was inconclusive: 17.8 µM [inhibitor, partial curve].

Q: With `O=C(N/N=C/c1cccnc1)c1cc(O)c(O)c(O)c1` as the molecule, how does the Potency read?
A: Its Potency is inconclusive: 11.2 µM [inhibitor, single point].

Q: How did the Potency turn out when `COC(=O)C(/C=N/O)NC(=O)c1ccccc1` (configuration not stated) was run?
A: The Potency was inconclusive: 31.6 µM [inhibitor, partial curve].

Q: `CC1(C(=O)NC23CC4CC(CC(C4)C2)C3)CC1(Cl)Cl` (configuration not stated) was tested. Which Potency did it give?
A: Its Potency is inconclusive: 14.1 µM [activator, partial curve, poor fit].

Q: Which “activity change, negative = inhibition” value does the source give for `CCCCN(Cc1ccccc1)S(=O)(=O)c1ccc2c(c1)CC(C)N2C(=O)CC` (configuration not stated) here?
A: Its value is inactive: -16.2% [at 76.3 µM].

Q: With `CC12CCC(C(=O)NNc3ccccc3)(C(=O)C1=O)C2(C)C` (configuration not stated) as the molecule, how does the Potency read?
A: The Potency was inconclusive: 3.55 µM [inhibitor, full curve].

Q: Which Potency does the source give for `CCOC(=O)c1[nH]c2ccc(OC)cc2c1NC(=S)N1CCN(C(=O)OCC)CC1` here?
A: Its Potency is inconclusive: 15.8 µM [inhibitor, partial curve].

Q: How did the Potency turn out when `COc1cc(/C=C/C(=O)OCC(=O)Nc2ccc([N+](=O)[O-])cc2)ccc1O` was run?
A: The Potency was inconclusive: 50.1 µM [inhibitor, single point].

Q: For `O=[N+]([O-])c1cccc(/C=N/N2CCN(c3ccccn3)CC2)c1`, which Potency is on record?
A: Its Potency is inconclusive: 28 µM [inhibitor, single point].

Q: With `COc1ccc(S(=O)(=O)NCCOc2cccc3cccnc23)cc1OC` as the molecule, how does the Potency read?
A: The Potency was inconclusive: 44.7 µM [activator, partial curve, poor fit].

Q: With `Cc1nn(-c2ccccc2)c(N2CCCC2)c1/C=N/NC(=O)c1ccccc1O` as the molecule, how does the Potency read?
A: The Potency was inconclusive: 28.2 µM [inhibitor, single point].

Q: For `CCS(=O)(=O)Nc1cc(-c2cn3ccc(C)cc3n2)ccc1C`, which “activity change, negative = inhibition” value is on record?
A: The value was inactive: 11.2% [at 76.3 µM].

Q: How did the Potency turn out when `N/C(=N\O)c1cn(Cc2ccccc2Cl)c2ccccc12` was run?
A: The Potency was inconclusive: 3.16 µM [inhibitor, single point].

Q: How did the Potency turn out when `CCCNc1c(N)n(-c2ccccc2)c(=O)[nH]c1=O` was run?
A: The Potency was inconclusive: 22.2 µM [activator, single point].

Q: With `O=c1c(Cl)c(N2CCCCC2)cnn1-c1nc2ccccc2[nH]1` as the molecule, how does the “activity change, negative = inhibition” value read?
A: The value was inactive: 1.68%.

Q: How did the activity change, negative = inhibition turn out when `CCN1CCC(C(N)=O)CC1` was run?
A: The activity change, negative = inhibition was inconclusive: 26% [activator].

Q: How did the Potency turn out when `Cc1ccc2cccc(NC(=O)c3cccc4ccccc34)c2n1` was run?
A: Its Potency is inconclusive: 8.91 µM [inhibitor, partial curve].

Q: With `COc1cc(C2NC(=S)NC(c3ccccc3)=C2C(C)=O)ccc1O` (configuration not stated) as the molecule, how does the Potency read?
A: Its Potency is inconclusive: 22.4 µM [inhibitor, partial curve].

Q: With `COc1ccc(-c2nc3n(n2)C(c2ccccc2F)C(C(=O)Nc2cccnc2)=C(C)N3)cc1OC` (configuration not stated) as the molecule, how does the “activity change, negative = inhibition” value read?
A: Its value is inactive: -18.4% [at 76.3 µM].

Q: For `N#Cc1sc2nc(-c3cccs3)cc(-c3ccccc3)c2c1N`, which “activity change, negative = inhibition” value is on record?
A: The value was inactive: 3.93%.

Q: `CCOc1cc(C2C(C(=O)OC)=CN(Cc3ccc(Cl)cc3)C=C2C(=O)OC)ccc1O` was tested. Which Potency did it give?
A: The Potency was inconclusive: 6.31 µM [inhibitor, single point].
